Experimental data published in the supplement of paper PMC10369915.
The other results are listed elsewhere or left out. No stated cut-off is given here; in the data, active = 3.2 or more and inactive = the rest. Most of these values are background signal.

How the values were obtained:
Experiment in all cases: enrichment score (SH2-bound / input frequency) (ratio); bacterial display of known human phosphotyrosine sites (pTyr-Var adds point mutants) read by sequencing; higher = stronger binding; tyrosines were phosphorylated by kinases first
Settings in all cases: peptide library: pTyr-Var
[1] = molecular target: SHP2 C-SH2 domain E139D
[2] = molecular target: SHP2 C-SH2 domain wild-type
[3] = molecular target: SHP2 N-SH2 domain L43F
[4] = molecular target: SHP2 N-SH2 domain T42A
[5] = molecular target: SHP2 N-SH2 domain T52S
[6] = molecular target: SHP2 N-SH2 domain wild-type

Measured: enrichment score
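Further: displayed peptides selected on beads carrying the immobilized SH2 domain, with library peptides lacking any tyrosine serving as negative controls.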

RTTKTYFPHFD [HBA1_Y43_P38R]
inactive: [1] 1.36 | [2] 1.02 | [3] 1.08 | [4] 1.71 | [5] 1.14 | [6] 1.25

PVQAPYQKVVA [HBB_Y131_A130P]
inactive: [1] 0.755 | [2] 0.853 | [3] 0.896 | [4] 0.737 | [5] 1.04 | [6] 0.804

PVQAAYQKVVD [HBB_Y131_A136D]
inactive: [1] 0.681 | [2] 0.944 | [3] 0.914 | [4] 0.79 | [5] 0.742 | [6] 1.01

PVEAAYQKVVA [HBB_Y131_Q128E]
inactive: [1] 0.856 | [2] 0.721 | [3] 1.04 | [4] 0.561 | [5] 1.01 | [6] 0.907

PVQAAYPKVVA [HBB_Y131_Q132P]
inactive: [1] 0.696 | [2] 0.72 | [3] 0.908 | [4] 0.577 | [5] 0.61 | [6] 0.995

PVQAAYRKVVA [HBB_Y131_Q132R]
inactive: [1] 0.408 | [2] 0.466 | [3] 0.453 | [4] 0.319 | [5] 0.493 | [6] 0.71

PAQAAYQKVVA [HBB_Y131_V127A]
inactive: [1] 0.813 | [2] 0.815 | [3] 0.871 | [4] 0.704 | [5] 0.901 | [6] 1.11

PGQAAYQKVVA [HBB_Y131_V127G]
inactive: [1] 0.728 | [2] 0.947 | [3] 0.818 | [4] 0.856 | [5] 0.675 | [6] 0.739

PVQAAYQKLVA [HBB_Y131_V134L]
inactive: [1] 0.757 | [2] 0.903 | [3] 0.887 | [4] 0.707 | [5] 0.941 | [6] 0.839

ALAHKYHGGGG [HBB_Y146]
inactive: [1] 0.439 | [2] 0.54 | [3] 0.548 | [4] 0.31 | [5] 0.45 | [6] 0.575

DLAHKYHGGGG [HBB_Y146_A141D]
inactive: [1] 0.797 | [2] 0.583 | [3] 0.585 | [4] 0.583 | [5] 0.598 | [6] 0.656

ALAPKYHGGGG [HBB_Y146_H144P]
inactive: [1] 0.566 | [2] 0.473 | [3] 0.759 | [4] 0.603 | [5] 0.726 | [6] 0.674

ALAHKYDGGGG [HBB_Y146_H147D]
inactive: [1] 0.88 | [2] 0.476 | [3] 0.292 | [4] 0.302 | [5] 0.383 | [6] 0.403

ALAHKYQGGGG [HBB_Y146_H147Q]
inactive: [1] 0.633 | [2] 1.03 | [3] 0.71 | [4] 0.642 | [5] 0.798 | [6] 0.409

ALAHKHHGGGG [HBB_Y146_Y146H]
inactive: [1] 2.29 | [2] 1.89 | [3] 2.28 | [4] 1.63 | [5] 2.23 | [6] 1.69

RLLVVYPWTQR [HBB_Y36]
inactive: [1] 2.35 | [2] 2.03 | [3] 2.18 | [4] 2.12 | [5] 2.57 | [6] 2.09

RPLVVYPWTQR [HBB_Y36_L32P]
inactive: [1] 0.601 | [2] 0.466 | [3] 0.542 | [4] 0.575 | [5] 0.599 | [6] 0.634

RLLVVYSWTQR [HBB_Y36_P37S]
inactive: [1] 2.77 | [2] 2.76 | [3] 2.34 | [4] 2.43 | [5] 2.58 | [6] 2.55

RLLVVYTWTQR [HBB_Y36_P37T]
inactive: [1] 2.94 | [2] 2.52 | [3] 2.7 | [4] 2.21 | [5] 2.25 | [6] 2.09
